# Source: the supplement of paper PMC11417369
# The list shows a part of the results.
# Tested on: PfHDP1 homeodomain (GST-tagged)
# Assay: gcPBM binding intensity (ln(normalized median fluorescence intensity)); higher = stronger DNA binding
# Summary of the method: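 The binding buffer was 1× PBS containing 1% milk, 0.2 mg/ml BSA, 0.5% salmon testes DNA and 0.03% Triton X-100. In it, GST-tagged P. falciparum DNA-binding domains expressed in E. coli were applied for 1 h to an Agilent 4 × 180k array of primer-extended double-stranded 36-bp intergenic genomic probes plus negative controls. Binding intensity, read with Alexa488 anti-GST antibody and a 488 nm scan, is the highest Masliner-normalised natural-log median intensity across replicate spots of either probe orientation.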
row,Sequence,gcPBM binding intensity (ln)
1,TATATTTTTTAAAAAGCATGCAAAAAATAATGATCA [TGCATGCA_site48],7.1
2,ACGTTGAAGAAATACACATGCATATTCTATATATAT [TGCATGCA_site76],7.27
3,TCATTTTATTTTTTCACACACACATATATATATATA [CACACA_site3333],9.31
4,CTCTTATGCTAGGAAGTGCAATAGTATGGGTACCAC,8.6
5,TAATATATATAAACATGTACAAATCAAAAACAAAAG [XGTACX_site4076],7.52
6,ATTTTAGATGAAAAAGCACACAACATATATATATAT [CACACA_site2295],8.96
7,ATTCTTTTTTTTTGGAAATGTATTTTTATGTTTTGT [TGCATGCA_negctrl_site426],6.56
8,ACAAGAAAATATATTTGTACATATATAATTTTATTT [XGTACX_site548],6.43
9,AAAGAAATACAATGATGTACATTTAAAAAAAATTAA [XGTACX_site4324],6.43
10,TTTTTAAAAAAGTAAAGTACAAAAAAAAGGAATATC [XGTACX_site588],7.25
11,ATTAGTAAGAATCATTGTACATTATAATATGTGGTA [XGTACX_site1341],6.53
12,TGCTTCCTTAGGAATGTACACACATATATAATATGT [CACACA_site8048],6.48
13,ATATATTTATATTTATGTACATATCTTTATTTACGT [XGTACX_site6800],6.6
14,ATATATATATCGATCTGTACATATATTTATAGACAT [XGTACX_site4236],8.25
15,ATTTATTTTTATATAACACACAAAGTATAATATAAC [CACACA_site3582],6.41
16,TGTAAAACTGAAAAGGGTACATATAAATATATATAT [XGTACX_site69],8.02
17,ACTATATATTTAATATGTACACATATTTCTGTCGAT [XGTACX_site6878],6.86
18,TTCCTAAGAATAATCAGTACACATAAAAAGAACATA [XGTACX_site7861],6.63
19,GCATTATTTACCACAACACACAAATATTTACCAATC [CACACA_site2669],7.16
20,TAATTTCATCATATTTGTTCCTTCTCAAAATTTTTT [CACACA_negctrl_site217],6.44
21,ATAATTATCATAGGATGTACATATTTATTTTGTATA [XGTACX_site7797],6.24
22,ATATGTTAAATTATTCGTACGTAAAAAAAAATGGAT [XGTACX_site3465],7.09
23,ACTCAAACCTTTAGAGTGCAAAAAAAAAAAAAAAAA [GTGCAC_site9952],7.61

row,Sequence,gcPBM binding intensity (ln)
1,TTGTAAAAATTAATACATATATATATATATATATAT [CACACA_negctrl_site6],9.37
2,TTAAATAAAAAAATAACACACATATAAATATATATG [CACACA_site3175],6.25
3,TTACATATTTTTTAACGTACATAAATATATATGTAT [XGTACX_site8406],6.15
4,CTCTTTTTTTGCAAAAGTACAAATGGGGATATATTT [XGTACX_site5813],8.35
5,AAAGAAATAAGGTGCACACATATACAGATATATATA [CACACA_site4399],9.82
6,ATATATTTGATTTACACACTTACAATGTATATAAAT [CACACA_site2993],6.88
7,TTTATAAACAAATGAACACACAAACATATATATATA [CACACA_site5713],8.87
8,TTTTTTCATTAGAAAACATGCAAATGTTTTTCACTT [TGCATGCA_site127],6.46
9,CTATTATAATATTTTACACACCATGTAAGATATATA [CACACA_site7492],6.67
10,TTTATTTTATCATTTGCACACGCACCCAGACATAAA [CACACA_site4347],10.6
11,TCTATTTTCTTATGAATGCACTAATTTATAAAACGT,8.44
12,TAACTAAGGAATAATACACACAGAAATATAGATTTA [CACACA_site6293],6.5
13,CAACAAAAATTATTTACACACAAAAGGCAAGGAAAT [CACACA_site1971],7.11
14,AGATTTATACAAATATGTACACACTAAATATATATT [XGTACX_site864],6.61
15,AAAAAGGGTATTATTACACACACGTAAATATTAATA [CACACA_site101],6.48
16,ATTAGGATATATTAAAGTACTAATATAATACATTTT [XGTACX_site7386],5.88
17,TATTCATTTATAAGCTGTACACATTAATTTGAGCTA [XGTACX_site3616],6.33
18,ATATAGTATTAATTTGCATGTCATGTATTAGGTCGA [TGCATGCA_site540],6.58
19,CTTTTTTTAATATGCACACATATATTTTATATATTA [CACACA_site2077],10.3
20,TGTAAGTTGATATAATGTACATGTTTGATTTTTTTT [XGTACX_site7687],6.34
21,TTTTATATTTTTTGTGGTACATTTAGAGAACCAAAA [XGTACX_site1695],6.04
22,TTTGAATTTTTTAACACACACATGTCTGGATATATA [CACACA_site1645],6.74
23,GAAAAAAAAAAAAAAAGTACATGTCATAAATTGTAT [XGTACX_site1461],6.32

row,Sequence,gcPBM binding intensity (ln)
1,TTTTCCTTAACACACGTTTATATAAAAAATTAAAAT [XGTACX_negctrl_site115],6.7
2,ATCCATCTTTTATATAGTACTTTATAATATATATAT [XGTACX_site8064],7.83
3,CAATGTTAATATAATACACACAATATGTATTTGTCT [CACACA_site1162],6.8
4,TTGTTAATATATATATGTACTTATTTATTTATTTAT [XGTACX_site2274],6.39
5,AGTATTTCCATATGTACATGCAAAAGGAAAGATATA [TGCATGCA_site850],6.66
6,TATTTTTCCCTATGCACACACACCGTATATATAATA [CACACA_site4758],10.1
7,TGTCCAATTTTTTATCGTACATAATATATAAATAAA [XGTACX_site1705],6.89
8,AAATATAAAAATAGCACACATATATACATATATATA [CACACA_site56],7.22
9,TATAAAAATGTGTATGTACACACTTTATTTTTAATA [CACACA_site2532],6.38
10,AGAAACGTAAGTTATACACACATGTCAAAAGAAAAA [CACACA_site312],6.7
11,AAATTAAAATATATATGTACATATATATATATATAT [XGTACX_site7844],9.47
12,GAGCTTTGGATGAAAGCATGCGATGAATGGATAAAA [TGCATGCA_site786],6.91
13,ATTTATTTCAATAAACTTCTTTTCTTTAACAATTAC [CACACA_negctrl_site1222],6.05
14,CTGTAAAATGTGATGGTGCATATTAATTTAGTTGTA,9.96
15,AACACAAATAAGTATTTGGATTATATTACATTTATA [CACACA_negctrl_site465],6.39
16,ATAAAAATAAATAAATGTACATATATATATATATAT [XGTACX_site1277],9.28
17,TAAATTAAAAAAAAAAACAAAAAAAAAGCAACAAAA [CACACA_negctrl_site1318],6.62
18,TAAATAGGAAAACCTATACACACTTTAAAAAAAATA [CACACA_site1621],6.11
19,TTGAATATTTAAAAACGTACATAAAATTATTTGATT [XGTACX_site5422],6.14
20,TCAAATAGAAAATAAAGTACTTAATTTTTAGGAACA [XGTACX_site1446],6.78
21,ATATATATATTTATAGTGCATTTATATTAAAATATC [GTGCAC_site9818],8.5
22,ATATATATTTATATATGTACATATTAATATATATAT [XGTACX_site1144],7.79
23,ATATTTATATTTTTTTGTACATATATAATTTTATAA [XGTACX_site4151],6.6

row,Sequence,gcPBM binding intensity (ln)
1,TTATAGTATTTATAATGTACAAATATATTTTATTTT [XGTACX_site5015],6.29
2,CCAAAGGGGGTATACTGTACATATAGTGGTTATATA [XGTACX_site1515],7.11
3,TGAAAATTTTAATGAGGAAATAAAATAAATATAATA [GTGCAC_negctrl_site159],6.34
4,ATAGGCACTTTTTGCACACGTATGAATAACAAAATA [CACACA_site5069],10.4
5,TTTATTAATAGACACACACACACACGCAAAATAAAA [CACACA_site6255],7.16
6,AATATTTTAAGGCACACACACAAAAAAAAAAAAAAA [CACACA_site2890],6.38
7,ATTTAAGGGGTGTATGCACACGACTATTCCGTATGA [CACACA_site4738],9.3
8,TAATTTAGTATCTTTACATGCGGGCATTATGTCATA [TGCATGCA_site167],6.05
9,CCATTTATTATTTGGGGTACATTTAATTAATATTTT [XGTACX_site5940],7.08
10,CTTTATTATAAGATTACACACATGTGTTATAATTTA [CACACA_site3169],6.57
11,TTGACCTTAAGAAGGTTGCACTAATCATTCAAAGTT,7.4
12,AATTTAATATAATGCACACATAAAAAAAAAAAAAAA [CACACA_site123],10.5
13,TTTTAAACAAAAAATTGTACAATTAGTGTATAATCC [XGTACX_site778],7.21
14,AAAAAAAAAAGACACACACACAAATACAAATACATA [CACACA_site6334],6.81
15,AAAGGAAATTAAAATTGATTACATATATAAAAAAAC [XGTACX_negctrl_site196],6.48
16,ACTTGTTTTCAATGTAAAATACAATTTTCATTTATT [CACACA_negctrl_site435],6.22
17,AAGTATTACAACCACACACACACCTATATATTATAT [CACACA_site4158],6.89
18,AATGAAAAATGTATCGTTAAAGGGTATCTTAAGGAT [XGTACX_negctrl_site222],6.31
19,CCAAAGAAATATAATACACACAAGAATATATTGGAT [CACACA_site6018],6.99
20,GAGAAATGGGGACACACACACATATTATAGATATAT [CACACA_site6829],6.52
